Measured values from PMC11995724, “Antibiotic target discovery by integrated phenotypic and activity-based profiling of electrophilic fragments” (Cell chemical biology, 2025).
Out of some 3,200 compounds screened, about 110 (3.4%) showed an effect of 50% or more. Some of the results follow.

system: T1, V. cholerae SAD30; parameters: species or system S. aureus MSSA476 (TSB) or V. cholerae SAD30 (LB); 384-well bacterial growth screen at 25 uM, OD600 relative to DMSO control; conditions: relative growth, OD600, LB; 25 µM; inhibitor
T1 construct: SAD30

Row | Compound | % of control remaining
1 | N#CC(=Cc1cccnc1)C(=O)NCc1ccccc1 [9-I14, N-benzyl-2-cyano-3-(pyridin-3-yl)prop-2-enamide] | 83.4126%
2 | Cc1cc(C)c(CCNC(=O)CCl)c(C)c1 [6-K06, 2-chloro-N-[2-(2,4,6-trimethylphenyl)ethyl]acetamide] | 92.824%
3 | CCOc1ccc(C(=O)CCl)cc1 [10-F12, 2-chloro-1-(4-ethoxyphenyl)ethan-1-one] | 15.1179%
4 | Cc1c(C#N)c(NC(=O)CCl)n(Cc2ccc(F)cc2)c1C [4-O21, 2-chloro-N-{3-cyano-1-[(4-fluorophenyl)methyl]-4,5-dimethyl-1H-pyrrol-2-yl}acetamide] | 91.7835%
5 | CC(Cl)C(=O)NC1CCN(Cc2cscn2)CC1 (stereo not shown) [7-D07, 2-chloro-N-{1-[(1,3-thiazol-4-yl)methyl]piperidin-4-yl}propanamide] | 84.3218%
6 | N#CC(=Cc1cccc([N+](=O)[O-])c1)C(=O)NCc1ccccc1 [8-B22, N-benzyl-2-cyano-3-(3-nitrophenyl)prop-2-enamide] | 88.5792%
7 | C=CCNC(=O)C(C#N)=Cc1cc(F)ccc1F [9-H07, 2-cyano-3-(2,5-difluorophenyl)-N-(prop-2-en-1-yl)prop-2-enamide] | 87.3555%
8 | COc1cc(C(C)NC(=O)CCl)sn1 (stereo not shown) [7-H22, 2-chloro-N-[1-(3-methoxy-1,2-thiazol-5-yl)ethyl]acetamide] | 94.8951%
9 | CC(Cl)C(=O)NC1(C(=O)N(C)C)CC(F)(F)C1 (stereo not shown) [7-K20, 1-(2-chloropropanamido)-3,3-difluoro-N,N-dimethylcyclobutane-1-carboxamide] | 80.3568%
10 | CCC1SC(=C(C#N)C(N)=O)N(c2ccc(C)cc2)C1=O (stereo not shown) [8-J15, 2-cyano-2-[5-ethyl-3-(4-methylphenyl)-4-oxo-1,3-thiazolidin-2-ylidene]acetamide] | 67.6411%
11 | N#CC(=Cc1ccccc1OC(F)F)C(=O)Nc1nccs1 [9-K19, 2-cyano-3-[2-(difluoromethoxy)phenyl]-N-(1,3-thiazol-2-yl)prop-2-enamide] | 89.8029%
12 | CC(NC(=O)CCl)C(=O)N1CCS(=O)(=O)CC1 (stereo not shown) [5-K14, 2-chloro-N-[1-(1,1-dioxo-1lambda6-thiomorpholin-4-yl)-1-oxopropan-2-yl]acetamide] | 88.7675%
13 | N#CC(=Cc1ccc([N+](=O)[O-])o1)C(=O)NCc1ccco1 [8-I17, 2-cyano-N-[(furan-2-yl)methyl]-3-(5-nitrofuran-2-yl)prop-2-enamide] | -0.06798%
14 | C=CC(=O)Nc1cn(CC(F)(F)F)nc1C [3-D06, N-[3-methyl-1-(2,2,2-trifluoroethyl)-1H-pyrazol-4-yl]prop-2-enamide] | 98.4415%
15 | C=CC(=O)N1CCN(Cc2ncon2)CC1 [3-I16, 1-{4-[(1,2,4-oxadiazol-3-yl)methyl]piperazin-1-yl}prop-2-en-1-one] | 91.2075%
16 | COc1ccc(S(=O)(=O)N2CCOCC2)cc1NC(=O)CCl [4-O04, 2-chloro-N-[2-methoxy-5-(morpholine-4-sulfonyl)phenyl]acetamide] | 103.688%
17 | CC(Cl)C(=O)N(C)C(C)c1cccc(NC(=O)c2ccccc2)c1 (stereo not shown) [6-J14, N-{3-[1-(2-chloro-N-methylpropanamido)ethyl]phenyl}benzamide] | 76.5949%
18 | C=CC(=O)N(C)CC(=O)N1CCc2cc(OC)c(OC)cc2C1C (stereo not shown) [3-C04, N-[2-(6,7-dimethoxy-1-methyl-1,2,3,4-tetrahydroisoquinolin-2-yl)-2-oxoethyl]-N-methylprop-2-enamide] | 116.615%
19 | CN(C)CCN1C(=O)C=CC1=O [10-G11, 1-[2-(dimethylamino)ethyl]-2,5-dihydro-1H-pyrrole-2,5-dione] | 99.9026%
20 | C=CC(=O)N1CCCCC1CNC(C)=O (stereo not shown) [2-M07, N-{[1-(prop-2-enoyl)piperidin-2-yl]methyl}acetamide] | 90.0415%
21 | C=CC(=O)N1CCC(C(=O)Nc2nncn2C)(c2ccccc2)CC1 [3-O12, N-(4-methyl-4H-1,2,4-triazol-3-yl)-4-phenyl-1-(prop-2-enoyl)piperidine-4-carboxamide] | 98.0886%
22 | O=C(CCl)NC1CCN(C(=O)CCc2ccccc2)CC1 [6-N08, 2-chloro-N-[1-(3-phenylpropanoyl)piperidin-4-yl]acetamide] | 95.7058%
23 | Cc1ccccc1NC(=O)C(C#N)=Cc1cc2c(cc1[N+](=O)[O-])OCO2 [9-P11, 2-cyano-N-(2-methylphenyl)-3-(6-nitro-1,3-dioxaindan-5-yl)prop-2-enamide] | 84.5003%
24 | N#CC(=Cc1ccc(-c2ccccc2)cc1)C(=O)NCc1ccccc1 [8-C06, N-benzyl-3-{[1,1'-biphenyl]-4-yl}-2-cyanoprop-2-enamide] | 79.1978%
25 | CC(NC(=O)CCl)c1cn(-c2ccccc2)nn1 (stereo not shown) [5-O06, 2-chloro-N-[1-(1-phenyl-1H-1,2,3-triazol-4-yl)ethyl]acetamide] | 103.73%
26 | Cc1cc(CN(C(=O)CCl)c2ccc(F)cc2)nn1C [5-E14, 2-chloro-N-[(1,5-dimethyl-1H-pyrazol-3-yl)methyl]-N-(4-fluorophenyl)acetamide] | 97.6778%
27 | CC(Cl)C(=O)NCC1CCCN(c2nccn3cnnc23)C1 (stereo not shown) [7-M05, 2-chloro-N-[(1-{[1,2,4]triazolo[4,3-a]pyrazin-8-yl}piperidin-3-yl)methyl]propanamide] | 82.868%
28 | CC(C)OC(=O)c1c(NC(=O)CCl)sc2c1CCCC2 [4-E21, propan-2-yl 2-(2-chloroacetamido)-4,5,6,7-tetrahydro-1-benzothiophene-3-carboxylate] | 106.793%
